Data as given in PubChem BioAssay (Tox21).
Where “and” joins values, the source holds several entries; their conditions need not be identical. Identical values can stand only once. The inconclusive results got no clear call from the source; some entries with a clear call stand among them for comparison. Potencies of inconclusive entries are doubtful fits and often do not repeat. The source holds several records for some structures; these can differ, active in one and inactive in another. Calls of active or inactive are those of the source. Calls come from the whole dose curve; as a rule, active = well fitted curve in the direction sought with a large enough effect in the repeat runs; inconclusive = weak or mixed curves; inactive = no such curve, though single readings can be large; an effect the other way counts as inactive or inconclusive.

How the values were obtained:
[1] = A CellTox Green Cytotoxicity Assay to monitor cytotoxicity in HepG2 cells - 0 hour (AID 1224882); conditions: CellTox Green fluorescence; series mostly up to 76.8 µM; note: nearly all actives have a fitted effect of over 35% in size
Procedure, shortened: (§1)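 HepG2 cells were seeded together with the CellTox Green dye at 600 cells/well, left 5 h at 37 C/5% CO2, then given compounds in DMSO. Fluorescence from dye bound to dead-cell DNA was read repeatedly over 40 h of treatment at 37 C.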

[2] = qHTS RealTime-Glo MT Cell Viability Assay in HepG2 cells - 16 hour (AID 1224885); conditions: RealTime-Glo luminescence; series mostly up to 76.8 µM; note: nearly all actives have a fitted effect of over 50% in size
Procedure, shortened: (§2)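 Cell number in HepG2 cultures estimated from NanoLuc luminescence generated by metabolic reduction of a prosubstrate by living cells. The homogeneous, nonlytic format allowed repeated reads at 0, 8, 16, 24, 32 and 40 h of compound exposure.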

[3] = qHTS RealTime-Glo MT Cell Viability Assay in HEK293 cells - 24 hour (AID 1224886); conditions: RealTime-Glo luminescence; series mostly up to 76.8 µM; note: nearly all actives have a fitted effect of over 50% in size
Procedure, shortened: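 Homogeneous bioluminescent viability format in HEK293 cells (600 cells/well). Following 5 h at 37 C/5% CO2, 23 nL compound was pintooled; the signal was measured repeatedly during 40 h incubation.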

[4] = qHTS RealTime-Glo MT Cell Viability Assay in HEK293 cells - 8 hour (AID 1224887); conditions: RealTime-Glo luminescence; series mostly up to 76.8 µM; note: nearly all actives have a fitted effect of over 50% in size
Procedure, shortened: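 HEK293 cells mixed with RealTime-Glo reagents (NanoLuc plus cell-permeant prosubstrate) at 600 cells/well, preincubated 5 h at 37 C/5% CO2, then given 23 nL compound in DMSO. Nonlytic luminescence from viable cells was read at 0, 8, 16, 24, 32 and 40 h.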

[5] = A CellTox Green Cytotoxicity Assay to monitor cytotoxicity in HepG2 cells - 8 hour (AID 1224890); conditions: CellTox Green fluorescence; series mostly up to 76.8 µM; note: nearly all actives have a fitted effect of over 45% in size
Procedure, shortened: as §1

[6] = A CellTox Green Cytotoxicity Assay to monitor cytotoxicity in HEK293 cells - 16 hour (AID 1224888); conditions: CellTox Green fluorescence; series mostly up to 76.8 µM; note: nearly all actives have a fitted effect of over 35% in size
Procedure, shortened: (§3)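 HEK293 cells premixed with CellTox Green dye were seeded at 600 cells/well and left 5 h at 37 C/5% CO2 before pin transfer of 23 nL compound in DMSO. Fluorescence from dye bound to dead-cell DNA was read during 40 h treatment.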

[7] = qHTS assay to identify small molecule antagonists of the estrogen receptor alpha (ER-alpha) signaling pathway using the BG1 cell line in the presence of 0.1 nM 17-beta-estradiol - cell viability counter screen (AID 1259241); conditions: VM7Luc4E2 (BG1) viability, CellTiter-Fluor protease, 22 h, 0.1 nM estradiol agonist added; series mostly up to 92.4 µM; note: nearly all actives have a fitted effect of over 40% in size
Procedure, shortened: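 VM7Luc4E2 cells (endogenous full-length ER-alpha, 4xERE-luciferase), cultured 5 days in charcoal-stripped serum, exposed to compounds with 0.1 nM 17beta-estradiol (final) for 22 hr at 37C. Viability read in same wells as live-cell protease fluorescence after 30 min.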

[8] = A CellTox Green Cytotoxicity Assay to monitor cytotoxicity in HepG2 cells - 32 hour (AID 1224883); conditions: CellTox Green fluorescence; series mostly up to 76.8 µM; note: nearly all actives have a fitted effect of over 50% in size
Procedure, shortened: as §1

[9] = A CellTox Green Cytotoxicity Assay to monitor cytotoxicity in HEK293 cells - 8 hour (AID 1224884); conditions: CellTox Green fluorescence; series mostly up to 76.8 µM; note: nearly all actives have a fitted effect of over 35% in size
Procedure, shortened: as §3

[10] = qHTS RealTime-Glo MT Cell Viability Assay in HepG2 cells - 0 hour (AID 1224889); conditions: RealTime-Glo luminescence; series mostly up to 76.8 µM; note: nearly all actives have a fitted effect of over 50% in size
Procedure, shortened: as §2
Potency is the fitted concentration of half-maximal effect; tags give direction and shape of the fitted curve.

## COc1ccc(C(Cl)=C(c2ccc(OC)cc2)c2ccc(OC)cc2)cc1
[1]
  Potency: inconclusive: 61.7 µM [activator, partial curve, poor fit]
[2]
  Potency: inconclusive: 49 µM [cytotoxic, partial curve, poor fit]
[3]
  Potency: inconclusive: 21.9 µM [cytotoxic, partial curve]
[4]
  Potency: inconclusive: 61.4 µM [cytotoxic, partial curve, poor fit]
[5]
  Potency: inconclusive: 54.9 µM [activator, single point]

## Cc1cc2nc3c(=O)[nH]c(=O)nc-3n(C[C@H](O)[C@H](O)[C@H](O)CO)c2cc1C
[1]
  Potency: active: 43.2 µM and active: 40.5 µM and active: 11.7 µM
[4]
  Potency: inactive
[6]
  Potency: active: 43.2 µM and active: 40.5 µM and active: 11.7 µM
[5]
  Potency: active: 43.2 µM and active: 40.5 µM and active: 11.7 µM
[7]
  Potency: inconclusive: 53.9 µM [rising, partial curve] and inconclusive: 50.6 µM [rising, partial curve] and inconclusive: 13 µM [rising, partial curve]

## ClC1=C(Cl)C(Cl)(Cl)C(Cl)=C1Cl
[8]
  Potency: inconclusive: 22 µM [activator, partial curve]

## CCCCCCCCCC[N+](C)(CCCCCCCCCC)CCC[Si](OC)(OC)OC
[8]
  Potency: active: 21.9 µM
[9]
  Potency: inconclusive: 54.9 µM [activator, single point]
[2]
  Potency: active: 49 µM

## COc1ccc(-c2ccc3cc(C(=O)O)ccc3c2)cc1C12CC3CC(CC(C3)C1)C2
[1]
  Potency: inconclusive: 19 µM [activator, partial curve, poor fit]
[2]
  Potency: inconclusive: 23.9 µM [cytotoxic, single point]
[3]
  Potency: active: 4.77 µM
[5]
  Potency: inconclusive: 26.8 µM [activator, single point]
[7]
  Potency: inactive

## O=C1CCCCCN1
[8]
  Potency: inconclusive: 61.8 µM [activator, partial curve, poor fit]

## OC1C(O)C(O)C(O)C(O)C1O (centres undefined)
[8]
  Potency: inconclusive: 54.9 µM [activator, single point]

## Oc1c(Cl)cc(Cl)c(Cl)c1Cc1c(O)c(Cl)cc(Cl)c1Cl
[1]
  Potency: inconclusive: 26.8 µM [activator, single point]
[9]
  Potency: inconclusive: 61.5 µM [activator, partial curve, poor fit]
[2]
  Potency: inconclusive: 21.9 µM [cytotoxic, partial curve]
[3]
  Potency: inconclusive: 9.77 µM [cytotoxic, partial curve] and inconclusive: 3.01 µM [cytotoxic, full curve]
[4]
  Potency: inconclusive: 61.5 µM [cytotoxic, single point]
[6]
  Potency: inconclusive: 43.5 µM [activator, partial curve, poor fit] and inconclusive: 43.6 µM [activator, partial curve]
[10]
  Potency: inconclusive: 48.9 µM [cytotoxic, single point] and inconclusive: 49 µM [cytotoxic, partial curve]
[5]
  Potency: inconclusive: 54.9 µM [activator, single point] and inconclusive: 26.8 µM [activator, single point]

## O=C1CCC/C=C\CCCCCCCCCC1
[1]
  Potency: inactive
[8]
  Potency: inconclusive: 54.9 µM [activator, partial curve, poor fit]

## Clc1ccc(C(Cn2ccnc2)OCc2ccsc2Cl)c(Cl)c1 (centres undefined)
[1]
  Potency: inactive
[2]
  Potency: inconclusive: 23.9 µM [cytotoxic, single point]
[4]
  Potency: inconclusive: 15.1 µM [cytotoxic, partial curve]
[6]
  Potency: inactive

## CCCC(=O)c1cc(O)c(O)cc1O
[1]
  Potency: inconclusive: 0.155 µM [activator, partial curve]
[8]
  Potency: inconclusive: 19.5 µM [activator, single point]
[3]
  Potency: inconclusive: 54.9 µM [rising, partial curve, poor fit]
[7]
  Potency: inconclusive: 61.1 µM [cytotoxic]

## CCCCCCCCCCCCOC(=O)c1cc(O)c(O)c(O)c1
[1]
  Potency: inconclusive: 54.9 µM [activator, partial curve, poor fit]
[9]
  Potency: inconclusive: 54.9 µM [activator, single point]
[6]
  Potency: active: 54.7 µM and active: 43.6 µM
[10]
  Potency: inactive
[7]
  Potency: inconclusive: 68.3 µM [cytotoxic, partial curve, poor fit] and inconclusive: 77 µM [cytotoxic, partial curve, poor fit]

## CCc1cc(Cc2cc(CC)c(N)c(CC)c2)cc(CC)c1N
[8]
  Potency: inconclusive: 54.9 µM [activator, single point]

## [O-][n+]1ccccc1SSc1cccc[n+]1[O-]
[1]
  Potency: active: 11.7 µM
[2]
  Potency: active: 0.233 µM
[3]
  Potency: active: 1.31 µM
[4]
  Potency: inconclusive: 1.31 µM [cytotoxic, full curve]
[6]
  Potency: active: 8.27 µM
[7]
  Potency: active: 0.411 µM

## CC(CN1c2ccccc2Sc2ccccc21)N(C)C (centres undefined)
[8]
  Potency: active: 55.5 µM and active: 49 µM and active: 23.9 µM
[9]
  Potency: inconclusive: 54.9 µM [activator, single point]
[2]
  Potency: inconclusive: 38.9 µM [cytotoxic, partial curve]
[3]
  Potency: active: 39.3 µM and active: 43.6 µM and inconclusive: 6.01 µM [cytotoxic, full curve]
[4]
  Potency: active: 24.8 µM and inconclusive: 27.5 µM [cytotoxic, partial curve] and inconclusive: 9.52 µM [cytotoxic, partial curve]
[6]
  Potency: inconclusive: 62.3 µM [activator, single point] and inconclusive: 49 µM [activator, single point]
[7]
  Potency: inconclusive: 69.3 µM [cytotoxic, single point]

## Cc1ccc(-c2cc(C(F)(F)F)nn2-c2ccc(S(N)(=O)=O)cc2)cc1
[8]
  Potency: inconclusive: 26.8 µM [activator, single point]
[9]
  Potency: inconclusive: 54.7 µM [activator, single point] and inconclusive: 61.6 µM [activator, single point]
[3]
  Potency: inconclusive: 30.1 µM [cytotoxic, single point]
[4]
  Potency: active: 43.5 µM and active: 30.9 µM
[6]
  Potency: inconclusive: 54.7 µM [activator] and inconclusive: 54.9 µM [activator, single point]
[10]
  Potency: inactive
[5]
  Potency: inconclusive: 54.7 µM [activator, single point] and active: 54.9 µM and inconclusive: 26.8 µM [activator, single point]

## CCCCC(CC)COC(=O)c1ccc(O)cc1 (centres undefined)
[8]
  Potency: inconclusive: 54.7 µM [activator, single point]
[9]
  Potency: inconclusive: 27.5 µM [activator, partial curve, poor fit]
[2]
  Potency: inconclusive: 34.7 µM [cytotoxic, partial curve, poor fit]
[3]
  Potency: inconclusive: 34.7 µM [cytotoxic, partial curve]
[4]
  Potency: inconclusive: 54.7 µM [cytotoxic, partial curve] and inconclusive: 34.7 µM [cytotoxic, partial curve]
[5]
  Potency: inconclusive: 54.7 µM [activator, single point] and active: 38.9 µM

## NC(=O)N/N=C/c1ccc([N+](=O)[O-])o1
[8]
  Potency: inconclusive: 21.9 µM [activator, single point]
[9]
  Potency: inconclusive: 49 µM [activator, partial curve, poor fit]
[3]
  Potency: inconclusive: 60.3 µM [rising, single point]
[4]
  Potency: inconclusive: 60.3 µM [rising, single point]
[6]
  Potency: inconclusive: 54.9 µM [activator, partial curve, poor fit]
[5]
  Potency: inactive
[7]
  Potency: inconclusive: 26.6 µM [cytotoxic, single point]

## CN(C)CCCN1c2ccccc2Sc2ccc(Cl)cc21
[8]
  Potency: active: 24.5 µM and active: 23.9 µM
[9]
  Potency: active: 54.9 µM
[3]
  Potency: active: 24.5 µM and active: 23.9 µM
[4]
  Potency: active: 30.9 µM and inconclusive: 26.8 µM [cytotoxic, partial curve]
[10]
  Potency: inconclusive: 24.5 µM [rising, partial curve] and inconclusive: 19 µM [rising, partial curve]
[5]
  Potency: inconclusive: 54.9 µM [activator, single point]

## CCCCCC(=O)O[C@]1(C(C)=O)CC[C@H]2[C@@H]3CCC4=CC(=O)CC[C@]4(C)[C@H]3CC[C@@]21C
[8]
  Potency: inconclusive: 61.2 µM [activator, partial curve, poor fit]
[2]
  Potency: inconclusive: 21.7 µM [cytotoxic, partial curve] and inconclusive: 19 µM [cytotoxic, partial curve, poor fit]
[3]
  Potency: active: 24.4 µM and inconclusive: 21.3 µM [cytotoxic, partial curve]
[6]
  Potency: inconclusive: 54.6 µM [activator, single point]
[10]
  Potency: inconclusive: 7.56 µM [cytotoxic, full curve]
